Experimental data as given in PubChem BioAssay AID651820 (National Center for Advancing Translational Sciences (NCATS), 2012).
Hit rate of the full screen: of about 340,000 compounds, about 12,000 (3.5%) were called active. Inconclusive means that the source gave no clear call. Such entries were picked first, then a sample of the others. The call rests on the fitted dose curve; in most records, active means well fitted inhibition curve with a large enough effect; inconclusive means small, poorly fitted or top-dose-only effect, or another doubt; inactive means no such curve, though single readings can be large or run the other way. No potency is given beside an inconclusive call; the fits are too rough.
On the % scale 0 is the no-effect control and ±100 the full control effect; potency means the concentration at half of the fitted maximal effect; tags describe the fitted curve by direction and shape.

Assay: qHTS Assay for Inhibitors of Hepatitis C Virus (HCV)
Settings: Huh7.5.1 HCVcc-Cre (HCVcc is cell-culture hepatitis C virus) infection, luciferase reporter, 44 h; activity change, negative = inhibition: at 41.8 µM (top of the series) unless noted
Outline: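 Compounds are dispensed onto cells plated 4 h earlier at 1,000 per well, with HCVcc-Cre virus (about 0.5 moi) added next. Following 44 h of culture, luminescent signal is measured for 15 sec after 15 min with substrate at room temperature.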
With `Cc1cccc(S(=O)(=O)Nc2nc3ccccc3nc2OC(C)C)c1` the “activity change, negative = inhibition” value was inactive: 20.4%. For `Cc1ccc(S(=O)(=O)N2CCCCC2)cc1NC(=O)CNC(C)c1ccc(Cl)c(Cl)c1` (stereo unspecified), the Potency was active: 8.91 µM. With `Cc1cc2c3nonc3ccc2n1C` the Potency was inconclusive [inhibitor, partial curve]. For `CCOC(=O)CSC1=C(C#N)C(c2ccc(Cl)cc2)CC(=O)N1` (stereo unspecified), the Potency was inconclusive [inhibitor, full curve, poor fit]. With `O=c1cccc2n1CC1CC2CN(Cc2c(Cl)cccc2Cl)C1` (stereo unspecified) the Potency was inconclusive [inhibitor, single point]. With `Cc1cc(Cl)n2nc(C)c(-c3ccc(Cl)cc3)c2n1` the Potency was inconclusive [inhibitor, single point]. In the case of `COc1cc2c(oc(=O)c3cc(C)cc(OC)c32)c2c(C3OC(C)C(O)C(C)(O)C3O)ccc(O)c12` (stereo unspecified), the Potency is reported as inconclusive [inhibitor, partial curve]. For `COc1ccccc1-n1cnnc1SCC(=O)c1ccc[nH]1`, the Potency was inconclusive [inhibitor, single point]. For `COc1ccccc1N=Nc1c(C)[nH][nH]c1=O`, the “activity change, negative = inhibition” value was inactive: -28.1%. In the case of `CC1CCC/C(=C\Nc2ccc(C(=O)O)cc2)C1=O` (stereo unspecified), the “activity change, negative = inhibition” value is reported as inactive: 20.2%. In the case of `COc1ccc(C(=O)Nc2nc(-c3ccccc3)c(C(C)=O)s2)c(OC)c1`, the Potency is reported as active: 12.6 µM. With `CCn1c(O)c(N=NC(=O)CNC(=O)c2ccccc2F)c2ccccc21` the “activity change, negative = inhibition” value was inactive: -18.3%. In the case of `CCN(CC)S(=O)(=O)c1ccc(N2CCOCC2)c(NC(=O)COc2ccc(OC)cc2)c1`, the Potency is reported as inconclusive [inhibitor, single point]. With `N=C1/C(=C\c2ccc(-c3cccc(Cl)c3)o2)C(=O)N=C2SC=C(c3ccccc3)N12` the “activity change, negative = inhibition” value was inactive: 19.3%. For `C=CCC1(O)C(=O)Nc2ccccc21` (stereo unspecified), the “activity change, negative = inhibition” value was inactive: -12.3%. With `CC(C)CCN1CCN(Cc2cnc(-c3ccccc3)s2)CC1CCO` (stereo unspecified) the Potency was inconclusive [inhibitor, single point]. In the case of `COc1ccc(C(C)=O)cc1CSc1nnc(-c2ccncc2)n1C`, the “activity change, negative = inhibition” value is reported as inactive: 11.5%. With `NC(=O)c1ccccc1OCC(=O)N1CCC(Cc2ccccc2)CC1` the Potency was active: 8.91 µM. With `O=[N+]([O-])c1ccc(CSC2=NCCN2)cc1` the Potency was inconclusive [inhibitor, single point]. For `OCCN1CCN(CC/C=C2/c3ccccc3Sc3ccc(C(F)(F)F)cc32)CC1`, the Potency was active: 0.891 µM. For `COc1ccc(NC(=O)c2ccc(Cl)nc2)cc1S(=O)(=O)N1CCCCC1`, the Potency was active: 11.2 µM. With `COc1cc(OC)cc(-n2nnnc2SCC(=O)Nc2nc3c(s2)CCCC3)c1` the Potency was inconclusive [inhibitor, single point]. With `COc1ccccc1-c1noc(CCC(=O)Nc2cc(C(F)(F)F)ccc2Cl)n1` the Potency was inconclusive [inhibitor, full curve]. For `O=C(NC(NNc1ccc([N+](=O)[O-])cc1)(C(F)(F)F)C(F)(F)F)c1ccc(F)cc1`, the Potency was inconclusive [inhibitor, partial curve]. In the case of `COc1ccccc1N1C(=O)c2cccc3c(N(C)CCO)ccc(c23)C1=O`, the Potency is reported as inconclusive [inhibitor, partial curve]. In the case of `COCCCNC(=S)NC(=O)c1ccc(C)cc1`, the “activity change, negative = inhibition” value is reported as inactive: -3.52%. For `NC(=O)CSc1oc(-c2ccco2)nc1S(=O)(=O)c1ccc(Cl)cc1`, the Potency was inconclusive [inhibitor, partial curve, poor fit]. In the case of `CCOC(=O)c1cc(-c2nnc(-c3cc(OC)c(OC)c(OC)c3)o2)c(C)nc1C`, the Potency is reported as inconclusive [inhibitor, full curve, poor fit]. For `COc1ccc(F)cc1C(=O)C1CCCN(Cc2cn(C)c3ccccc23)C1` (stereo unspecified), the Potency was inconclusive [inhibitor, single point]. In the case of `CC(C)CC(=O)Nc1cccc(-c2cn3ccsc3n2)c1`, the Potency is reported as inconclusive [inhibitor, single point]. In the case of `OC(COc1ccccc1)CN1CCN(C(c2ccccc2)c2ccccc2)CC1` (stereo unspecified), the Potency is reported as active: 7.94 µM. With `COc1ccc(CCNc2nc(-c3ccc(F)cc3)c(CC(=O)O)s2)cc1OC` the “activity change, negative = inhibition” value was inactive: 3.33%. In the case of `CCOc1ccc(N(CC(=O)N2CCN(c3ccccc3OC)CC2)S(=O)(=O)c2ccc(C)cc2)cc1`, the Potency is reported as inconclusive [inhibitor, single point]. With `CC(=O)COc1ccc2c(-c3ccccc3)cc(=O)oc2c1` the Potency was inconclusive [inhibitor, single point]. In the case of `CCn1c2ccccc2c2cc(NC(=O)COC(=O)Cc3cn4ccsc4n3)ccc21`, the Potency is reported as active: 5.62 µM. In the case of `COc1ccc(CCNC(=O)CSCc2ccc(Cl)cc2)cc1OC`, the Potency is reported as inconclusive [inhibitor, single point].
